# According to the supplement of paper PMC11417369:
# This is one part of the list.
# Test system: PfHDP1 homeodomain (GST-tagged)
# Experiment: gcPBM binding intensity (ln(normalized median fluorescence intensity)); higher = stronger DNA binding
# Outline: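 Binding of GST-tagged P. falciparum DNA-binding domains, expressed in E. coli and used at about 25 μg on average, was carried out for 1 h in 1× PBS containing 1% milk, 0.2 mg/ml BSA, 0.5% salmon testes DNA and 0.03% Triton X-100. The target was an Agilent 4 × 180k array of primer-extended double-stranded 36-bp intergenic genomic probes plus negative controls, read with Alexa488 anti-GST antibody at 488 nm. Binding intensity is the highest Masliner-normalised natural-log median intensity across replicate spots of either probe orientation.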
row,Sequence,gcPBM binding intensity (ln)
1,TATAATTTATAAGTAGTGCATTTCTTTTCATTTTTA,9.12
2,TTTTATAGAGTGTATACATGCAATACCACATAAAAT [TGCATGCA_site476],6.65
3,ATATGGAAGAATTAAAGTACTTAAAAAAATGTCAGT [XGTACX_site6837],6.98
4,ATATTATCCCTATTTGCACACAAGAGTAATTTTTTA [CACACA_site3908],10.4
5,TTTCTTTCTATTGTTATATTTATAATAATTATAATT [XGTACX_negctrl_site215],6.78
6,TGTTTAAGTGTTTTTAGTACTTATAAAAATATTATC [XGTACX_site7379],6.1
7,TATAAAATTACATTTTGTCATTTATTTTTTCCCACT [TGCATGCA_negctrl_site110],6.24
8,TTATACGATAATATGACACACAATACAAAAATGTAA [CACACA_site1918],6.44
9,CCTATAAAACCATATACACACATATATATAAAAAAA [CACACA_site4013],6.65
10,TGTTTCTAAAAATTTACACACAAAATATTTCTACAT [CACACA_site4098],6.35
11,AAAAAAAAAAAAATTGCATGTAAATGAAATAATAAA [TGCATGCA_site116],6.44
12,AAAGAAGAAAAATATAGTACAGGGCACATGTCCTGT [XGTACX_site6293],5.77
13,TTATTTTTATATTTCACACACATATACTTTTACATA [CACACA_site4097],6.73
14,ATTTAAATTTAAAAAACACACATAATATGATATATA [CACACA_site1973],6.69
15,AAATAAAATATTACATGTACATGTTCATAAAAAAAA [XGTACX_site1067],6.35
16,ATAAATTAATGGAGAAATCTTATGAATTTATTTTAA [CACACA_negctrl_site1068],5.71
17,TATTGTAGTCATGCACGTACAAAAGGAAAGTTAAAA [XGTACX_site4446],8.65
18,AATATATACATATATACACACACATATATTATATAT [CACACA_site7980],6.88
19,TAAATATAAGTGTACATACACACTTTACAATCTCAT [CACACA_site3006],6.28

row,Sequence,gcPBM binding intensity (ln)
1,AATAAAAAGGAACACACACACACACCGATATATATA [CACACA_site5895],6.85
2,TACATACACAGACACACACACATATATATATATATA [CACACA_site3557],9.32
3,CTTATTTTATTCGAATGTACATAATTGTTAGACATT [XGTACX_site8583],6.58
4,TTTTACAAATGTTTTACACACACATAATTGTATCAA [CACACA_site4166],6.73
5,AAAAAAAGGATGTACGTATCATAATTTTATTTTATA [CACACA_negctrl_site1543],6.06
6,ATGGTTTAATTATATACACACTCGAAAATAACGACA [CACACA_site3258],6.63
7,TGATATTATATTGTGATGCACTTTAAAAATATAAAG [GTGCAC_site9509],7.24
8,CTTAAGTAAAATTAAAGTACATGGACAAAAAATATA [XGTACX_site7900],6.69
9,TATCTCATGCGCACAAAAATATATGCAAAGAGTATA [TGCATGCA_negctrl_site201],8.26
10,AATAATAACAAATGAACACACATATAGATGAGCAAA [CACACA_site7076],7.97
11,CAATTTTACTCATAAACACACATATATATGTTATTA [CACACA_site3152],6.86
12,ATATGTGTTAAAAATGCACACAAAAAAATATACATA [CACACA_site7988],9.74
13,TGGGTATATATAAAAGGTACACAAAATGAAGATATA [XGTACX_site4994],7.07
14,TTTTCTGTGTTTTTGGGTACACACAAATAGCTTGTA [XGTACX_site8553],6.85
15,TAATTTCTTATGTATTGTACAAATAATATATTATAT [XGTACX_site1037],6.6
16,AATATATACATACATACATGCATACATATATATAAC [TGCATGCA_site371],6.51
17,TTTAAATATATTCAATCACACACATTCGTTTTTTTT [CACACA_site7962],6.56
18,GAATATTAAACAAACACACACACATATATATATATA [CACACA_site3382],9.25
19,AGTAGTCTGGAGAAAAGTACACAGTATCTGGTAACC [XGTACX_site2035],6.12

row,Sequence,gcPBM binding intensity (ln)
1,GTATAAAAATTATATACACACAACAGAATTACATAT [CACACA_site133],6.74
2,GTTTATTGATTTATTTGTACTTATATATATATTTCA [XGTACX_site5098],6.95
3,TTATGTATCCTTATAAGAAAAAAAAAAAAATTCTCT [CACACA_negctrl_site1183],6.09
4,TAAAGATGTATTTATTCACACATCTCATATAATGAA [CACACA_site5229],6.28
5,AATAAAAATATAGGCACACATATTAAAATGAACTTA [CACACA_site830],6.33
6,TGAATTTAGATATATACACACAAAAGTAAATACAAT [CACACA_site5548],6.71
7,ATGTATATGTTTTGTTGTACAAGTATTTTATATCTT [XGTACX_site3588],6.77
8,TAAATACAGACATATACACACATATATATATATATA [CACACA_site4382],9.34
9,TATATATATATATTACGTTTTAAATATACTAATCTT [CACACA_negctrl_site32],8.81
10,TTTTTATTTTTTCAAGTGCATATTTTTGGCTTCTTA,7.35
11,TAAATTTATATATAGGTGCGCAATTTGATAATAGTT [GTGCAC_site9783],7.5
12,AAAAAAAAAAAAAATACACACATATATATATATATA [CACACA_site85],9.27
13,CTTTTTCCTTTATATTGTACATAATTAAAGATAATA [XGTACX_site7014],6.66
14,AAAAAAAAAAGACACACACACAATAGTATATAAATC [CACACA_site6579],6.59
15,TATAAATAGATATATACACACATTTTTAATGATAAA [CACACA_site7299],6.27
16,TATTGCCCTGGACACACACACATATATATATATATA [CACACA_site5389],9.42
17,TTATGTTATATAAAAAGTACAAATTTTTTTTAATTA [XGTACX_site3435],5.94
18,ATTATTATTATATATGCATGTAAAATATTAAAGTAC [TGCATGCA_site914],6.77
19,ATAATATAAACATACACACACACATCTATATTTATA [CACACA_site7381],6.97
